Here are results for 57 compounds from PMC4336329 (PLoS ONE, 2015).

Hit rate of the full screen: of about 310,000 compounds, about 14,000 (4.5%) showed an effect of 50% or more. The effect is printed as a negative number. The list shows a part of the results.
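Also: peak tail current of the secondary pulse compared with the same well before compound.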

In the assay the target is human ether-à-go-go-related gene (hERG) potassium channel (human, UniProt Q12809). The assay is described as follows: primary screen, population patch clamp on CHO cells stably expressing hERG.
Sequence of human ether-à-go-go-related gene (hERG) potassium channel (Q12809 whole entry, looked up): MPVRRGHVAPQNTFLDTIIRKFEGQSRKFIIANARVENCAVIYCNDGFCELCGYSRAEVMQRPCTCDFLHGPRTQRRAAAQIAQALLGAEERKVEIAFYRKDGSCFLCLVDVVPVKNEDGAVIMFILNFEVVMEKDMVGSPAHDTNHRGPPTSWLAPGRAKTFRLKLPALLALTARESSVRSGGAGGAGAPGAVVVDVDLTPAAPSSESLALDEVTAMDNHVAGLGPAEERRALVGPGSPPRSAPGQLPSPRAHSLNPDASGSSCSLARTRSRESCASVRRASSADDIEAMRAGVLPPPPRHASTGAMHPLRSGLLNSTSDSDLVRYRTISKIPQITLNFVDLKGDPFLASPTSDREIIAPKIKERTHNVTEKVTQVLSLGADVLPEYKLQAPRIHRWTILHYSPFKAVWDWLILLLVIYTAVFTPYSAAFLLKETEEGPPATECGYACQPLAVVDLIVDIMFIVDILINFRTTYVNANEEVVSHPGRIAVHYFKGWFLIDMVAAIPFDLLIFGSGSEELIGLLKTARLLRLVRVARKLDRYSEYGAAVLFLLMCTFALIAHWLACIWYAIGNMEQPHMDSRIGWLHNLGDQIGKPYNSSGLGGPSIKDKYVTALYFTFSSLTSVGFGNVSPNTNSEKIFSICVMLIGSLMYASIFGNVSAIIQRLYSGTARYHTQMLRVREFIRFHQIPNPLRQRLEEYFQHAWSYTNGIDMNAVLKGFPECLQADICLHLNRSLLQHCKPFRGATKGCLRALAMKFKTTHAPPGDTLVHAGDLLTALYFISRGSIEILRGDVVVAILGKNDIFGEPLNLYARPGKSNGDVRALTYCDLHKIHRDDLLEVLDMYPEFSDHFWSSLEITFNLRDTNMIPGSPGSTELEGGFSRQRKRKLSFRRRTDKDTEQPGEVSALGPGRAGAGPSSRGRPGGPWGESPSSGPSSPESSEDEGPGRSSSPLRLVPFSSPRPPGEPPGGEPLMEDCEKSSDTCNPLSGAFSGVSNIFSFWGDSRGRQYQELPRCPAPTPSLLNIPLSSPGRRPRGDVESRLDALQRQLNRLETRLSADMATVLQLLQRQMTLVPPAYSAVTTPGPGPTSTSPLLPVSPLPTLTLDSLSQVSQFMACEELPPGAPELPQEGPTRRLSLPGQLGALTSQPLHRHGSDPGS
Consider `COc1ccc(C(=O)NCCCc2nc3ccccc3n2Cc2ccccc2C)cc1OC`, for which the “hERG current change (%, negative = inhibition) at 10uM” value is given as -55.4%. For `CCOc1ccc(CCNC(=O)c2cc([N+](=O)[O-])ccc2N2CCOCC2)cc1OCC`, the “hERG current change (%, negative = inhibition) at 10uM” value is listed as -37.3%. As for `COc1ccc(-n2c(=O)c3ccccc3n(Cc3cccc(C)c3)c2=O)cc1OC`, the figure is -0.137%; as for `CCN1C(=NCCCCO)N[C@@H](c2cccc(C(F)(F)F)c2)C(C(=O)OC)=C1C`, 5.89%. Regarding `CC1=CN2CC(O)CN=C2C=C1.Cl` (stereo not drawn), the “hERG current change (%, negative = inhibition) at 10uM” value is recorded as -1.57%. Take `Cc1sc2ncnc(NCC3CCCO3)c2c1C.Cl` (stereo not drawn): the “hERG current change (%, negative = inhibition) at 10uM” value was -1.4%.

As to `CC12CCC(C(=O)N(c3ccccc3Cl)C1=O)C2(C)C` (stereo not drawn), the “hERG current change (%, negative = inhibition) at 10uM” value is 5.93%. With `CCN(CC(=O)Nc1c(F)cccc1F)C(=O)/C=C/c1c(C)nn(-c2ccc(F)cc2)c1C`, the “hERG current change (%, negative = inhibition) at 10uM” value is listed as 5.39%. Take `O=C(O)CC(Cc1ccccc1)C(=O)Nc1ccc([N+](=O)[O-])cc1` (stereo not drawn): the “hERG current change (%, negative = inhibition) at 10uM” value was -11%. For `Cn1nc(C(F)(F)F)c(-c2ccc(F)cc2)c1NC(=O)Nc1ccc(F)cc1`, the “hERG current change (%, negative = inhibition) at 10uM” value came to 8.29%. As for `O=C(Nc1nc2c(Cl)cccc2s1)C1CC1`, the figure is 5.69%; as for `COc1ccccc1C(=O)NCC(=O)NC1CCCc2ccccc21` (stereo not drawn), 6.11%. On to `Cc1ccc(/C=C(\NC(=O)c2ccc(C)cc2)C(=O)NCCCn2ccnc2)cc1`, for which the “hERG current change (%, negative = inhibition) at 10uM” value was -84.9%. In the case of `CN(C)C(=S)c1ccccc1`, the “hERG current change (%, negative = inhibition) at 10uM” value is listed as 4.5%. As for `CCn1c(/C=C/c2cc(Br)ccc2O)nc2ccccc2c1=O`, the figure is 17.9%; as for `Cc1no[n+]([O-])c1COc1ccc(/C=N/n2nnnc2N)cc1`, 4.03%; as for `CC(C)OP(=O)(c1ccc(N(C)C)cc1)C(O)c1c(Cl)cccc1Cl` (stereo not drawn), 2.64%. For `COc1ccc(CC(=O)NNC(=O)CCC(=O)Nc2cc(C)ccc2C)cc1`, the “hERG current change (%, negative = inhibition) at 10uM” value is given as 10.4%. Consider `COc1ccc(CN(C(=O)CCC(=O)Nc2cc(C)on2)C(C(=O)NC(C)(C)C)c2cccc(OC)c2OC)cc1` (stereo not drawn), for which the “hERG current change (%, negative = inhibition) at 10uM” value was -0.139%.

Consider `Cc1cc2c(c(=O)o1)C(CC(C)C)C(C#N)=C(N)O2` (stereo not drawn), for which the “hERG current change (%, negative = inhibition) at 10uM” value is recorded as 5.19%.

For the compound `COC(=O)COc1cccc(NC(=O)C(c2ccccc2)c2ccccc2)c1`, the “hERG current change (%, negative = inhibition) at 10uM” value came to 8.99%. In the case of `CCC(=O)Nc1cccc(C2=NOC3(C2)C[C@H](C(N)=O)N(C(=O)c2ccc(Cl)cc2)C3)c1` (stereo partly drawn), the “hERG current change (%, negative = inhibition) at 10uM” value worked out at 2.02%.

For `Cc1ccc(C(=O)NCC2CCCO2)o1` (stereo not drawn), the “hERG current change (%, negative = inhibition) at 10uM” value was determined as 7.49%.

As to `Cc1ccc(NP(=O)(c2ccccc2)c2nc3ccccc3s2)cc1` (stereo not drawn), the “hERG current change (%, negative = inhibition) at 10uM” value came out at 3.27%.

Regarding `COc1ccc(NC(=S)NCCc2c[nH]c3ccccc23)c(OC)c1`, the “hERG current change (%, negative = inhibition) at 10uM” value stood at 4.23%.

As to `Cc1cc(C)n2nc(SCC(=O)N(C)C3CCCCC3)nc2n1`, the “hERG current change (%, negative = inhibition) at 10uM” value is recorded as -15.6%. For the compound `Cl.N=C(N)c1ccc(N)cc1`, the “hERG current change (%, negative = inhibition) at 10uM” value is listed as 17.9%. Regarding `Cc1cc(S(=O)(=O)NC(C)C)ccc1OCC(=O)NCc1ccccc1`, the “hERG current change (%, negative = inhibition) at 10uM” value is -2.28%. With `O=C(O)c1cc(-c2ccccc2)nc2ccccc12`, the “hERG current change (%, negative = inhibition) at 10uM” value came out at 15.6%. With `COc1ccc(/C=C/c2noc(-c3ccccc3O)n2)cc1`, the “hERG current change (%, negative = inhibition) at 10uM” value came to 5.94%. As for `CCn1c2ccccc2c2cc(/C=N/n3cn[nH]c3=S)ccc21`, the figure is 2.82%; as for `O=C(Nc1nc2ccc(F)cc2s1)c1ccc(N2CCCC2=O)cc1`, 11.9%. For the compound `CC1=NN(C(=O)c2ccccc2Cl)C(O)(c2cccnc2)C1` (stereo not drawn), the “hERG current change (%, negative = inhibition) at 10uM” value was found to be 17.8%. Turning to `Cc1cc(NC(=O)Cn2nc(C(F)(F)F)c3c2CCCC3)no1`, the “hERG current change (%, negative = inhibition) at 10uM” value is on record as -0.743%. In the case of `C=CCS(=O)(=O)c1cccc2cccnc12`, the “hERG current change (%, negative = inhibition) at 10uM” value amounted to 23.8%.

Turning to `O=C(CSc1cccc(C(F)(F)F)c1)N1CCN(S(=O)(=O)c2ccccc2)CC1`, the “hERG current change (%, negative = inhibition) at 10uM” value is on record as -33.8%. In the case of `COCCNC(=O)c1cnn2c(C(F)(F)F)cc(-c3ccc4c(c3)OCO4)nc12`, the “hERG current change (%, negative = inhibition) at 10uM” value is -16.4%. Regarding `COc1ccc2c(c1)CCC1C2=NN(/C(C)=C\C(C)=O)C1c1ccc(F)cc1` (stereo not drawn), the “hERG current change (%, negative = inhibition) at 10uM” value was 5.82%. As for `Cc1nc2ccc(NC(=O)c3cccs3)cc2s1`, the figure is 19.8%; as for `Brc1cccc(-c2nnc(SCc3ccon3)n2-c2ccccc2)c1`, -48.9%; as for `COc1cc(C(C)=O)ccc1OCC(O)CN1CCN(c2ccc(C)cc2C)CC1` (stereo not drawn), -58.3%. As for `COc1ccccc1Oc1ccc(NC(=O)Cc2ccccc2)cc1`, the figure is 2.39%; as for `COc1cc(NS(=O)(=O)c2ccc(NC(=O)c3ccc(S(=O)(=O)N4CCCC4)cc3)cc2)ncn1`, 26.5%; as for `O=S(=O)(c1ccc(-c2nnco2)cc1)N1CCCCC1`, 4.04%.

Regarding `Cc1ccnc(NC(=O)C2CCN(S(=O)(=O)c3ccc4ccccc4c3)CC2)c1`, the “hERG current change (%, negative = inhibition) at 10uM” value was 7.94%. Turning to `Cc1nc([N+](=O)[O-])cn1CC(O)c1ccc(Cl)cc1` (stereo not drawn), the “hERG current change (%, negative = inhibition) at 10uM” value is -2.66%. `CC(C)Cc1nnc(NC(=O)CCC(=O)Nc2ccc(F)cc2)s1`: the “hERG current change (%, negative = inhibition) at 10uM” value was -2.11%.

With `CC(C)NC(=O)/C(=N\O)c1ccccc1`, the “hERG current change (%, negative = inhibition) at 10uM” value is reported as -2.21%.

Regarding `Cc1cc(NC(=O)C(C)SCC(=O)OCC(=O)Nc2c(C)cccc2C(C)C)no1` (stereo not drawn), the “hERG current change (%, negative = inhibition) at 10uM” value is 2.9%. For `O=[N+]([O-])c1ccc(NCc2ccncc2)cc1`, the “hERG current change (%, negative = inhibition) at 10uM” value was -3.55%. With `Cc1cc(C)n(C(C)CC(=O)Nc2ccc3c(c2)OCCO3)n1` (stereo not drawn), the “hERG current change (%, negative = inhibition) at 10uM” value is listed as -1%. As for `CC(=O)c1cc(F)c(N2CCN(C(=O)Cc3ccccc3)CC2)cc1C`, the figure is -11.5%; as for `Cc1cccc(-c2cc3nc(C)cc(NCCCN(C)C)n3n2)c1`, -38.1%. Regarding `COc1cccc(CNC(=O)c2nnn(CC(=O)Nc3cc(Cl)ccc3C)c2N)c1`, the “hERG current change (%, negative = inhibition) at 10uM” value is listed as 10.4%. As for `Cc1ccccc1-c1cc(C(=O)N2CCCC2)c2ccccc2n1`, the figure is -47.9%; as for `OCc1nnn(-c2ccccc2)c1CO`, 14.3%; as for `CC(CCC(=O)O)C1CCC2C3C(O)CC4CC(O)CCC4(C)C3CC(O)C12C` (stereo not drawn), 4.66%.
